Measured values as given in the supplement of paper PMC8728848.
This is one part of the list.

Columns and labels:
Assay in all cases: glycan array binding signal (z-score within array); higher = stronger binding
Settings in all cases: glycan notation: IUPAC condensed, linker removed
[1] = molecular target: Fuc(a1-2)[GalNAc(a1-3)]Gal(b1-3)GlcNAc(b1-6)GalNAc
In short: (§1)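 Glycan array data came from 3228 arrays in the Consortium for Functional Glycomics database, and only arrays with an available protein sequence were kept. Glycan names were put into IUPAC-condensed notation, and columns mapping to the same glycan were averaged. The binding signal is a within-array Z-score, averaged across arrays of one protein sequence run at different concentrations or buffers and across linkers. A negative Z-score can be read as non-binding.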

[2] = molecular target: Fuc(a1-2)[GalNAc(a1-3)]Gal(b1-4)Glc
In short: as §1

[3] = molecular target: Fuc(a1-2)[GalNAc(a1-3)]Gal(b1-4)GlcNAc
In short: as §1

[4] = molecular target: Fuc(a1-2)[GalNAc(a1-3)]Gal(b1-4)GlcNAc(b1-2)Man
In short: as §1

[5] = molecular target: Fuc(a1-2)[GalNAc(a1-3)]Gal(b1-4)GlcNAc(b1-2)Man(a1-3)[Fuc(a1-2)[GalNAc(a1-3)]Gal(b1-4)GlcNAc(b1-2)Man(a1-6)]Man(b1-4)GlcNAc(b1-4)GlcNAc
In short: as §1

[6] = molecular target: Fuc(a1-2)[GalNAc(a1-3)]Gal(b1-4)GlcNAc(b1-2)Man(a1-3)[Fuc(a1-2)[GalNAc(a1-3)]Gal(b1-4)GlcNAc(b1-2)Man(a1-6)]Man(b1-4)GlcNAc(b1-4)[Fuc(a1-6)]GlcNAc
In short: as §1

[7] = molecular target: Fuc(a1-2)[GalNAc(a1-3)]Gal(b1-4)GlcNAc(b1-3)Gal(b1-4)GlcNAc
In short: as §1

[8] = molecular target: Fuc(a1-2)[GalNAc(a1-3)]Gal(b1-4)GlcNAc(b1-3)Gal(b1-4)GlcNAc(b1-3)Gal(b1-4)GlcNAc
In short: as §1

[9] = molecular target: Fuc(a1-2)[GalNAc(a1-3)]Gal(b1-4)GlcNAc(b1-3)GalNAc
In short: as §1

[10] = molecular target: Fuc(a1-2)[GalNAc(a1-3)]Gal(b1-4)GlcNAc(b1-3)[Fuc(a1-2)[GalNAc(a1-3)]Gal(b1-4)GlcNAc(b1-6)]GalNAc
In short: as §1

[11] = molecular target: Fuc(a1-2)[GalNAc(a1-3)]Gal(b1-4)GlcNAc(b1-6)GalNAc
In short: as §1

[12] = molecular target: Fuc(a1-2)[GalNAc(a1-3)]Gal(b1-4)[Fuc(a1-3)]GlcNAc
In short: as §1

[13] = molecular target: Fuc(a1-2)[GalNAc(a1-3)]Gal(b1-4)[Fuc(a1-3)]GlcNAc(b1-3)GalNAc
In short: as §1

[14] = molecular target: Fuc(a1-2)[GalNAc(a1-4)]Gal(b1-4)GlcNAc
In short: as §1

[15] = molecular target: Fuc(a1-2)[GalNAc(b1-3)]Gal
In short: as §1

[16] = molecular target: Fuc(a1-3)GlcNAc
In short: as §1

[17] = molecular target: Fuc(a1-3)[Gal(b1-4)]Glc6S
In short: as §1

[18] = molecular target: Fuc(a1-3)[Gal(b1-4)]GlcNAc
In short: as §1

[19] = molecular target: Fuc(a1-3)[Gal(b1-4)]GlcNAc(b1-2)Man
In short: as §1

[20] = molecular target: Fuc(a1-3)[Gal(b1-4)]GlcNAc(b1-2)Man(a1-3)[Fuc(a1-3)[Gal(b1-4)]GlcNAc(b1-2)Man(a1-6)]Man(b1-4)GlcNAc(b1-4)GlcNAc
In short: as §1

[21] = molecular target: Fuc(a1-3)[Gal(b1-4)]GlcNAc(b1-2)Man(a1-3)[Fuc(a1-3)[Gal(b1-4)]GlcNAc(b1-2)Man(a1-6)]Man(b1-4)GlcNAc(b1-4)[Fuc(a1-6)]GlcNAc
In short: as §1

[22] = molecular target: Fuc(a1-3)[Gal(b1-4)]GlcNAc(b1-3)Gal(b1-3)[Fuc(a1-4)]GlcNAc
In short: as §1

[23] = molecular target: Fuc(a1-3)[Gal(b1-4)]GlcNAc(b1-3)Gal(b1-4)[Fuc(a1-3)]GlcNAc
In short: as §1

[24] = molecular target: Fuc(a1-3)[Gal(b1-4)]GlcNAc(b1-3)Gal(b1-4)[Fuc(a1-3)]GlcNAc(b1-3)Gal(b1-4)[Fuc(a1-3)]GlcNAc
In short: as §1

[25] = molecular target: Fuc(a1-3)[Gal(b1-4)]GlcNAc(b1-3)GalNAc
In short: as §1

[26] = molecular target: Fuc(a1-3)[Gal(b1-4)]GlcNAc(b1-6)GalNAc
In short: as §1

[27] = molecular target: Fuc(a1-3)[Gal(b1-4)]GlcNAc(b1-6)[Gal(b1-3)GlcNAc(b1-3)]Gal(b1-4)Glc
In short: as §1

[28] = molecular target: Fuc(a1-3)[Gal(b1-4)]GlcNAc6S
In short: as §1

[29] = molecular target: Fuc(a1-3)[Gal3S(b1-4)]Glc
In short: as §1

[30] = molecular target: Fuc(a1-3)[Gal3S(b1-4)]GlcNAc
In short: as §1

[31] = molecular target: Fuc(a1-3)[Gal3S(b1-4)]GlcNAc6S
In short: as §1

[32] = molecular target: Fuc(a1-3)[GalNAc(b1-4)]GlcNAc
In short: as §1

[33] = molecular target: Fuc(a1-3)[GalNAc(b1-4)]GlcNAc6S
In short: as §1

[34] = molecular target: Fuc(a1-4)GlcNAc
In short: as §1

[35] = molecular target: Fuc(b1-3)GlcNAc
In short: as §1

[36] = molecular target: Gal(a1-2)Gal
In short: as §1

[37] = molecular target: Gal(a1-3)Gal
In short: as §1

[38] = molecular target: Gal(a1-3)Gal(b1-3)GlcNAc
In short: as §1

[39] = molecular target: Gal(a1-3)Gal(b1-3)GlcNAc(b1-2)Man
In short: as §1

[40] = molecular target: Gal(a1-3)Gal(b1-3)GlcNAc(b1-2)Man(a1-3)[Gal(a1-3)Gal(b1-3)GlcNAc(b1-2)Man(a1-6)]Man(b1-4)GlcNAc(b1-4)GlcNAc
In short: as §1

[41] = molecular target: Gal(a1-3)Gal(b1-3)GlcNAc(b1-3)GalNAc
In short: as §1

[42] = molecular target: Gal(a1-3)Gal(b1-3)GlcNAc(b1-6)GalNAc
In short: as §1

[43] = molecular target: Gal(a1-3)Gal(b1-3)[Fuc(a1-4)]GlcNAc(b1-2)Man(a1-3)[Gal(a1-3)Gal(b1-3)[Fuc(a1-4)]GlcNAc(b1-2)Man(a1-6)]Man(b1-4)GlcNAc(b1-4)GlcNAc
In short: as §1

[44] = molecular target: Gal(a1-3)Gal(b1-4)Glc
In short: as §1

[45] = molecular target: Gal(a1-3)Gal(b1-4)GlcNAc
In short: as §1

B1: rEtpA (Escherichia coli) (protein)
chain: MNRIYKLKFDKRRNELVVVSEITTGVGNAKATGSVEGEKSPRRGVRAMALSLLSGMMIMAHPAMSANLPTGGQIVAGSGSIQTPSGNQMNIHQNSQNMVANWNSFDIGKGNTVQFDQPSSSAVALNRVVGGGESQIMGNLKANGQVFLVNPNGVLFGEGASVSTSGFVASTRDIKNDDFMNRRYTFSGGQKAGAAIVNQGELTTNAGGYIVLAADRVSNSGTIRTPGGKTVLAASERITLQLDNGGLMSVQVTGDVVNALVENRGLVSARDGQVYLTALGRGMLMNTVLNVSGVVEASGMHRQDGNIVLDGGDSGVVHLSGTLQADNASGQGGKVVVQGKNILLDKGSNITATGGQGGGEVYVGGGWQGKDSNIRNADKVVMQGGARIDVSATQQGNGGTAVLWSDSYTNFHGQISAKGGETGGNGGRVETSSHGNLQAFGTVSASAKKGKAGNWLLDSADITIVNGSNVSKTETTQSPPHTQFAPTAAGSAVSNTSINNRLNNGTSVTILTHRTRTGTAQGGNITVNAAINKSNGSDVNLTLQAGGNITVNNSITSTEGKLNVNLSGARTSNGSITISNNANITTNGGDITVGTTNTSNRVNISINNTTLNASNGNIQLTGTGTDSGILFAGNNRLTASNIALTGNSTSGNAINLTGTATLNATNNITLTGSSTSGNAINLKGNNTLTASNITLTGESTSGNAINLTDTTGTTTLNATNNITMQGTRVQIKHSNITAGNFALNATVAGSEISNTTLTATNNINLAAKTNSASSGVYLKDARITSTNGSITANGTATANGKATHLDGNVTLNASNGRIKLTGNGHGSASGILFAGNNRLTASNIALTGNSTSGNAINLTGTATLNATNDITLTGSSTSGNAINLTGTATLNATNNITLTGSSTSGNAINLKGNNTLTASNITLTGESTSGNAINLTDTTGTTTLNATNNITMQGTRVQIKHSNITAGNFALNATVAGSEISNTTLTATNNINLAAKTNSASSGVYLKDARITSTNGSITANGTATANGKATHLDGNVTLNASNGRIKLTGNGHGSASGILFAGNNRLTASNIALTGNSTSGNAINLTGTATLNATNDITLTGSSTSGNAINLTGTATLNATNNITLTGSSTSGNAINLKGNNTLTASNITLTGESTSGNAINLTDTTGTTTLNATNNITMQGTRVQIKHSNITAGNFALNATVAGSEISNTTLTATNNINLAAKTNSASSGVYLKDARITSTNGSITANGTATANGKATHLDGNVTLNASNGRIKLTGNGHGSASGILFAGNNRLTASNIALTGNSTSGNAINLTGTATLNATNDITLTGSSTSGNAINLTGTATLNATNNITLTGSSTSGNAINLKGNNTLTASNITLTGESTSGNAINLTDTTGTTTLNATNNITMQGTRVQIKHSNITAGNFALNATVAGSEISNTTLTATNNINLAAKTNSASSGVYLKDARITSTNGSITTNGTATANGKATHLDGNVTLNASNGRIKLTGNGHGSASGILFAGNNRLTASNIALTGNSTSGNAINLTGTATLNATNDITLTGSSTSGNAINLTGTATLNATNNITLTGSSTSGNAINLKGNNTLTASNITLTGESTSGNAINLTDTTGTTTLNATNNITMQGTRVQIKHSNITAGNFALNATVAGSEISNTTLTATNNINLAAKTNSASSGVYLKDARITSTNGSITANGTAPANDNATYLDGNVTLNASNGSIKLTGNGNGSTSGILFAGNNTLTASNITLTGNSEVYWQKLGPEQKLISEEDLNSAVDHHHHHH
glycan array binding signal (z-score) [1]: -0.423 | glycan array binding signal (z-score) [2]: -0.322 | glycan array binding signal (z-score) [3]: -0.293 | glycan array binding signal (z-score) [4]: -0.372 | glycan array binding signal (z-score) [5]: -0.09 | glycan array binding signal (z-score) [6]: 0.307 | glycan array binding signal (z-score) [7]: -0.272 | glycan array binding signal (z-score) [8]: -0.371 | glycan array binding signal (z-score) [9]: -0.402 | glycan array binding signal (z-score) [10]: -0.189 | glycan array binding signal (z-score) [11]: -0.369 | glycan array binding signal (z-score) [12]: 0.011 | glycan array binding signal (z-score) [13]: 0.418 | glycan array binding signal (z-score) [14]: -0.194 | glycan array binding signal (z-score) [15]: -0.125 | glycan array binding signal (z-score) [16]: 0.079 | glycan array binding signal (z-score) [17]: 0.311 | glycan array binding signal (z-score) [18]: -0.325 | glycan array binding signal (z-score) [19]: -0.351 | glycan array binding signal (z-score) [20]: -0.293 | glycan array binding signal (z-score) [21]: -0.085 | glycan array binding signal (z-score) [22]: -0.135 | glycan array binding signal (z-score) [23]: 0.087 | glycan array binding signal (z-score) [24]: -0.316 | glycan array binding signal (z-score) [25]: -0.358 | glycan array binding signal (z-score) [26]: -0.192 | glycan array binding signal (z-score) [27]: -0.355 | glycan array binding signal (z-score) [28]: 0.012 | glycan array binding signal (z-score) [29]: 0.277 | glycan array binding signal (z-score) [30]: -0.102 | glycan array binding signal (z-score) [31]: -0.414 | glycan array binding signal (z-score) [32]: -0.335 | glycan array binding signal (z-score) [33]: -0.388 | glycan array binding signal (z-score) [34]: 2.8 | glycan array binding signal (z-score) [35]: -0.083 | glycan array binding signal (z-score) [36]: 0.054 | glycan array binding signal (z-score) [37]: 2.11 | glycan array binding signal (z-score) [38]: 1.87 | glycan array binding signal (z-score) [39]: -0.149 | glycan array binding signal (z-score) [40]: 0.182 | glycan array binding signal (z-score) [41]: -0.382 | glycan array binding signal (z-score) [42]: -0.331 | glycan array binding signal (z-score) [43]: 1.23 | glycan array binding signal (z-score) [44]: -0.179 | glycan array binding signal (z-score) [45]: 0.097
